Data from article PMC12136788.
The other results are listed elsewhere or left out.

B1: chr1:83882962:83883136:-|CDS|ENSG00000137941|control|control|control (ssRNA)
RNA: GGGAGUUCUACAGUCCGACGAUCGACUCCUUUGCAGCUCCAGUGUUGCCAGCGCCUAGUGGAGCUUUGUAAACAGUGCCUGCUAGUGGUUUACAAAUAUGCAACUGACAAAAGAGGAUCACUUUCAGGCAUUGGUCCUGACUGCAACAGAGGAUUGAGCAUCA
B2: chr19:45712844:45712945:-|CDS|ENSG00000177051|unk|total|mutant (ssRNA)
RNA: GGGAGUUCUACAGUCCGACGAUCGGAACAGCGGGCAGCCCUGGCCCUGCAGAGCUACCCACGACCGACCACCCCAGCGCCUGCCGUCUUUGUGUCCGCCGAGCAAGGUGGACCGGCCAAGGGGGUGGGAUCUGAACGGCGGUCCAACAGAGGAUUGAGCAUCA
B3: chr4:145760401:145760502:-|3pUTR|ENSG00000151612|unk|total|mutant (ssRNA)
RNA: GGGAGUUCUACAGUCCGACGAUCUCCGUACUUUUCUCUGAAAGGAAUCUUGUCUUGUUAAACCCUAAAGAGAGUGUCCUUAACCGCAAUCAGCACUUGUAAGCUUAUAUACUGGUGCAUUUGGUUUUCUGUUGGGUGAAUGCGCAACAGAGGAUUGAGCAUCA
B4: chr8:133458587:133458688:-|3pUTR|ENSG00000008513|msi1|total|mutant (ssRNA)
RNA: GGGAGUUCUACAGUCCGACGAUCAUGAAACAAAAGCCCUUACUUGGGAAAAGGGACCCCCACCAGCGGCCCUGCUUGCUCCGCCGCUGGGAACAUCUUUUCUGGUUUCCUGAGCCAGCACCUGAAUUGCAACGAAGCUCUGAGCAACAGAGGAUUGAGCAUCA
B5: chr20:64048168:64048962:-|CDS|ENSG00000203883|control|control|control (ssRNA)
RNA: GGGAGUUCUACAGUCCGACGAUCCCGCAAGAAGCAGGCGCGCAAGGCCCGGCGGCUGGAGCCCGGCCUCCUGCUCCCGGGAUUAGCGCCCCCGCAGCCACCGCCCGAGCCUUUCCCCGCGGCGUCUGGCUCGGCUCGCGCCUUCAACAGAGGAUUGAGCAUCA
B6: chr9:137030712:137031725:-|CDS|ENSG00000180549|control|control|control (ssRNA)
RNA: GGGAGUUCUACAGUCCGACGAUCCUGCCCCUGGCCCAGCGGCCGCGAGGGCAGCCCUGGGUGUGGGCCUCCAUGGAGUCUCCUAGCCACACCCACGGCCUCAGCCACCUCCGAGGCAUCUUCAACUGGGUGCUGAGCUACCGGCAACAGAGGAUUGAGCAUCA
B7: ENSG00000135632:stop:overlap|stop_codon|ENSG00000135632|stop_codon|NA|stop_codon (ssRNA)
RNA: GGGAGUUCUACAGUCCGACGAUCAACGGCCCCUGGUGGCUGCACAGUUUCUCUGGAAUGCACUUUAUCGCUACCGAGGGCACUAGAGAAGGCAGAGGAGAAUGCCCAGAGGCUGACCGGGAAACCAGGCCAGGUUCUGCCUCACAACAGAGGAUUGAGCAUCA
B8: chr17:58089832:58089920:+|3pUTR|ENSG00000264364|msi1_unk|FALSE|overlapping (ssRNA)
RNA: GGGAGUUCUACAGUCCGACGAUCAUUCCACUGAACUGUGAUUCUAUGGCUUGGGGCGGAGGGUGGGGUGGGGAUGCCUUCUUUAGGGGCCCUGAGAUGUGUUUGUCUGUGGUGUGUGGGAGUGGGGAGCAGAUUUGUCUUGCUCAACAGAGGAUUGAGCAUCA
B9: chr6:109001311:109001429:-|CDS|ENSG00000080546|unk|total|mutant (ssRNA)
RNA: GGGAGUUCUACAGUCCGACGAUCUGCUGCUUUGGGCCGUUUGGAUAACAUUACGUCCGUGAUGGUUUUCCACCCACAAUAUUCCGAAAGUUUCUUAAAAACUCAGCACUAUCUACUGCAAAUGGAUGGGCCGUUACCCCUACACAACAGAGGAUUGAGCAUCA
B10: chr8:94436494:94436868:-|CDS|ENSG00000265817|control|control|control (ssRNA)
RNA: GGGAGUUCUACAGUCCGACGAUCAAUAGUAGAAAAGAAUAGAUGUUGGGAUAUCAUAGCAGUUAACUAUAAUGCAAUUGGAGUAGACCGCCCUCCUCGAACAGCACAGGGCCUACGCACCCUUUAUAAAAGGCUCAAAGAAUACAACAGAGGAUUGAGCAUCA
B11: chr20:3868059:3868160:+|3pUTR|ENSG00000088888|unk|FALSE|bound_elsewhere (ssRNA)
RNA: GGGAGUUCUACAGUCCGACGAUCUCAGCCUCCAGGGAUCUACACCCUGCCUUGGCUGCUACAGCUUUUUCACUCCACUGCCCUAGGGGAGUUCAGCAACCUAAUGAUCUCUAUCUCUGAACAUCUCUUCAUCCCAUGCUCCAACAACAGAGGAUUGAGCAUCA
B12: chr1:54031757:54031935:-|3pUTR|ENSG00000116209|msi1|FALSE|unique (ssRNA)
RNA: GGGAGUUCUACAGUCCGACGAUCUUAGCUAUGAGCUGAUCAUUGCUCCUUCUCACCUCCUGCCAUGAUACUGUCAGUUACCUUAGUUAACAAGCUGAAUAUUUAGUAGAAAUGAUGCUUCUGCUCAGGAAUGGCCCACAAAUCCAACAGAGGAUUGAGCAUCA
B13: chr12:3284029:3284272:+|3pUTR|ENSG00000011105|msi1|total|mutant (ssRNA)
RNA: GGGAGUUCUACAGUCCGACGAUCCAUGUGGGUAUUCCCACAACAGGUUCUGCACACCCCAGUUAUUUCACAGACAUUCCUGCCCGAAACUGUCAGACAAAUACCUCUCCCGUUCGGAUGCUGCUCACUUUCCCCCUUGCUUCUCAACAGAGGAUUGAGCAUCA
B14: chr12:48342538:48342639:-|3pUTR|ENSG00000167528|unk|total|mutant (ssRNA)
RNA: GGGAGUUCUACAGUCCGACGAUCUUGUUAAACAUUUUGAGUAUCACUCUUGCAUACUGUUACUAUUAUAUUUUCUCUAUAUACCGACAGAAAGGCCAUUUCCGAAUAUUAAAGGCUCUGAAAAUUUCUGCAGCCGACCCAACUCAACAGAGGAUUGAGCAUCA
B15: chr10:88913158:88913259:+|CDS|ENSG00000138134|unk|total|mutant (ssRNA)
RNA: GGGAGUUCUACAGUCCGACGAUCGCAUCAGAGAUUGACCGAGGCAGAAAGGAAGCGGAUUGCUCAGAUGCGCCAGCAGCAGCCCGAAUCGGAGCAGUUUCUGUUUUUCGAAGAUCAACUCAAGAAGCAAGAGUCCGCCCGAGGCAACAGAGGAUUGAGCAUCA
B16: chr15:48878618:48878734:+|CDS|ENSG00000255302|unk|total|mutant (ssRNA)
RNA: GGGAGUUCUACAGUCCGACGAUCAGAACCAGCCCUGGAUGGCGGGUUUCAGAUGCAUUAUGAGAAGACCCCGUUUGAUCAGUCCGCUUUUAUCGAAGAGCUUUUUUCACUGAUGGUUGUCAAUCGUCUGACCGAAGAACUCGGCAACAGAGGAUUGAGCAUCA
B17: chr7:29923496:29923595:-|3pUTR|ENSG00000136193|msi1_unk|total|mutant (ssRNA)
RNA: GGGAGUUCUACAGUCCGACGAUCUCACAGUGCCGAGUUGGCGGGAAAAGCAAAUUCUUUUGAAGUCUCCGUCUUUCCCUCAGCCGCGGUUUCUUUCAGGUUAACAAGAGGCAUUUGUGCACACACACAGGGCUCUUGUGUGUGCAACAGAGGAUUGAGCAUCA
B18: chr2:149026443:149026544:+|3pUTR|ENSG00000168280|msi1|total|mutant (ssRNA)
RNA: GGGAGUUCUACAGUCCGACGAUCGUAAAGUGUGUCCUGUGUACUGCAGAUGUGUGUUCUCUGGGCUUUAUGUAUCUGUACAGCCGCUUUCACAUUAAAAAAAUUGUGGACAAACUUGUCCGGGGGGUUUGAGGGGAGAAUGGUCAACAGAGGAUUGAGCAUCA
B19: chr22:32413844:32414425:-|three_prime_utr|ENSG00000184459|control|control|control (ssRNA)
RNA: GGGAGUUCUACAGUCCGACGAUCUGUAAACCCAGAAGGGAAAGACAGUACACACUGGAAUUGUAAAGCCCUUGUGAAUUGCUUAGGCAGAAAGUUUUCUUUCUUAAGCCUUCAGGAACCCAGAAUAAGGCAGACUCUGUUAAACAACAGAGGAUUGAGCAUCA
B20: ENSG00000070961:be:win_5551|3pUTR|ENSG00000070961|bound_else_gene|NA|bound_elsewhere_windowed (ssRNA)
RNA: GGGAGUUCUACAGUCCGACGAUCAAUUGUACAUUUAUUCAUCAGGUAUUUAUAGUGAAUCAUACUGUAAAAAAGAGGUAGCAUGAUAUGCUGGAAAGCAUAUUAGACUAGGAGUCAAGACCUGGUUUCUAGUCUUGGUUUUGCCAACAGAGGAUUGAGCAUCA
B21: chr12:89642165:89642281:-|CDS|ENSG00000070961|unk|FALSE|bound_elsewhere (ssRNA)
RNA: GGGAGUUCUACAGUCCGACGAUCGCCAAAAACCUUUCUUCAAUUAGUAUGGGAAGCAUUACAAGAUGUCACUUUAAUUAUAUUAGAAAUUGCAGCCAUAGUAUCAUUGGGCCUUUCUUUUUAUCAGCCUCCAGAAGGGGAUAACAACAGAGGAUUGAGCAUCA
B22: chr7:83961326:83961382:-|CDS_3pUTR|ENSG00000075213|msi1_unk|FALSE|overlapping (ssRNA)
RNA: GGGAGUUCUACAGUCCGACGAUCAAACAGGAGGACCCACGAAUUUGAGAGGGCACCCAGGAGUGUCUGAGCUGCAUUACCUCUAGAAACCUCAAACAAGUAGAAACUUGCCUAGACAAUAACUGGAAAAACAAAUGCAAUAUACAACAGAGGAUUGAGCAUCA

Target: MSI1 full-length (mouse, UniProt Q61474 1-362)
Test: nsRBNS (natural sequence RNA bind-n-seq); RBNS binding buffer (assumed for nsRBNS): 25 mM Tris pH 7.5, 150 mM KCl, 3 mM MgCl2, 0.01% Triton X-100, 500 ug/ml BSA, 20 U/ml SUPERase-In, 4 C; UNK is unkempt and MSI1 is Musashi-1; names of the RNAs are library labels; protein concentration not given here; high values mean tight binding

Chain of UniProt Q61474 (Q61474 whole entry): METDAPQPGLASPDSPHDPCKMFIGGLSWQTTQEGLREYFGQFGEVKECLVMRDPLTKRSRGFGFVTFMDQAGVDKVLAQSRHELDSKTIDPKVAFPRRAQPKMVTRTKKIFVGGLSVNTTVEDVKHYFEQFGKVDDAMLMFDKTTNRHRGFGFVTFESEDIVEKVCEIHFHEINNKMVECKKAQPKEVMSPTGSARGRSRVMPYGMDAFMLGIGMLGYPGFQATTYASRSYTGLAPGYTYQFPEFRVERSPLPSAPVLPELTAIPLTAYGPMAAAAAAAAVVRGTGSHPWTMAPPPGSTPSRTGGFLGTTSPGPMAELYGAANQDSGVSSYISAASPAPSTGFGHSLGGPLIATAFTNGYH

Row | Binder | binding signal [enrichment R]
1 | B1 | 0.473
2 | B2 | 0.292
3 | B3 | 0.257
4 | B4 | 0.216
5 | B5 | 0.197
6 | B6 | 0.372
7 | B7 | 0.701
8 | B8 | 0.975
9 | B9 | 0.762
10 | B10 | 28.2
11 | B11 | 0.53
12 | B12 | 7.16
13 | B13 | 0.768
14 | B14 | 1.27
15 | B15 | 0.282
16 | B16 | 0.578
17 | B17 | 0.252
18 | B18 | 0.49
19 | B19 | 0.237
20 | B20 | 1.11
21 | B21 | 9.09
22 | B22 | 0.665
